Assay results as given in ChEMBL document CHEMBL4888484, “Replenishing the malaria drug discovery pipeline: Screening and hit evaluation of the MMV Hit Generation Library 1 (HGL1) against asexual blood stage Plasmodium falciparum ,using a nano luciferase reporter read-out” (2022).
About 540 (0.36%) of roughly 150,000 compounds showed an effect of 50% or more. The list shows a part of the results.

The compounds below were run on Plasmodium falciparum (assay: Primary screen in NF54 nanoGlo assay, in single point, at 2uM, 72h; a lower Z score goes with more inhibition). Conditions: timepoint 72 hour.
Format: functional, Erythrocyte

Row | Compound | % Inhibition | Z score
1 | O=C1NC2(CCC3(CC2)OCCO3)C(=O)N1CCOc1ccc(F)cc1Cl | 2% | -0.27
2 | CN(Cc1ccccc1F)C(=O)C(=O)Nc1ccc2c(c1)CCC(=O)N2 | -2% | 0.41
3 | Cc1c(NC(=O)CN(C)Cc2cc(C(C)C)no2)cnn1C | 14% | -1.86
4 | CN1N=C(C(=O)NCC2(N3CCOCC3)CCCCC2)CCC1=O | 0% | -0.01
5 | O=C(Nc1ccc2nscc2c1)N1CCC(F)(F)C1 | -13% | 2.56
6 | O=S1(=O)CCC[C@@]2(C(F)(F)F)CN(Cc3nncs3)C[C@H]21 | 0% | -0.01
7 | CN(CCO)CCOCCOc1cc(Cl)ccc1Cl | 1% | -0.16
8 | COCCN(CC(=O)N(CCc1c[nH]c2ccccc12)Cc1ccc(OC)c(OC)c1)C(=O)Nc1ccc(C(C)C)cc1 | -1% | 0.17
9 | O=C(Nc1ccc(CCO)cc1)c1ccc(N2CCCN(Cc3cccc(F)c3)C2=O)cc1 | 0% | -0.03
10 | O=S(=O)(Cc1ccccc1)N1CCC[C@H](c2nnn[nH]2)C1 | -9% | 1.32
11 | COc1nc2c(cc1CNCc1noc(C3CC3)n1)C(=O)N(C(C)C)C2 | -28% | 2.77
12 | COc1ccc(C(=O)N2CCc3nc(-c4cccc(OC)c4)sc3C2)cc1 | -10% | 1.16
13 | CC(C)NC(=O)C1(C(=O)NC(C)C)CCC1 | -3% | 0.34
14 | CCC1CCCCN1CCN1C(=O)[C@@H]2C(C(=O)Nc3ccc(OC)cc3)[C@@H]3C=C[C@]2(O3)C1C(=O)NC1CCCCC1 (stereo not given in full) | -6% | 0.91
15 | CCCCN1CC(C(=O)N2CCCCC2CC)CC1=O (stereo not given) | 2% | -0.47
16 | Cc1cc(F)c2c(c1)CCCN2CC(=O)NCCc1ccc(F)cc1 | -5% | 0.75
17 | N[C@H]1CCCCN(C(=O)OCc2ccccc2Cl)C1 | 1% | -0.07
18 | O=C(CC1CCCC1)NCC(=O)N[C@H]1CCC[C@H]1Oc1cc(F)cc(F)c1 | -4% | 0.49
19 | Nc1nccnc1C(=O)N1CCCc2ccccc2C1 | -4% | 0.41
20 | Cc1ccc(C)c(CN[C@@H](C)c2cncc(F)c2)c1 | 18% | -2.28
21 | CCn1nc(C)c(CN[C@@H](C)c2cnc(N(C)C3CCCCC3)nc2C)c1C | 0% | 0.01
22 | NC(=O)NCC(=O)N1CCCC[C@@H]1CCc1ccccc1 | 8% | -1.07

Row | Compound | % Inhibition | Z score
23 | CS(=O)(=O)CCNC(=O)NC1C2CCc3ccccc3C21 (stereo not given) | 8% | -0.94
24 | CN(Cc1ccc2c(c1)OCO2)C(=O)c1cccc(N2CCCC2=O)c1 | -3% | 0.42
25 | C[C@H]1CN(C(=O)c2ncccc2O)C[C@]1(O)C1CC1 | -25% | 2.16
26 | CCOC(=O)c1cnn2ccc(NC(=O)c3ccccc3Cl)cc12 | -12% | 1.8
27 | Cc1cc(N2CCC(NC(=O)c3cn(C)nn3)CC2)n[nH]1 | -11% | 1.4
28 | CCS(=O)(=O)N1CCC[C@H](Cc2nc(C3CC3)no2)C1 | 10% | -1.33
29 | Cc1cnccc1-c1ccc(C(=O)N2CCOC[C@@H]2C)s1 | -6% | 0.87
30 | Cc1nn(Cc2ccccc2)c2nc(-c3ccsc3)[nH]c12 | -8% | 1.17
31 | COC[C@H](C)NC(=O)Nc1ccc(Cl)c(F)c1 | -3% | 0.25
32 | Cc1ccc(CNC(=O)Cn2nc3c(N4CCOCC4)nc4ccccc4n3c2=O)cc1 | 1% | -0.18
33 | CN(C)C(=O)N1CC[C@@]2(O)CCN(Cc3cc4cc(F)ccc4n3C)C[C@H]2C1 | -12% | 1.73
34 | Cn1c(=O)[nH]c(=O)c2c1nc(N1CCCCCC1)n2C[C@H](O)COc1ccccc1 | -21% | 2.72
35 | CNc1cc(C)nc(-c2cc(NCc3ccncc3)nc3[nH]ccc23)n1 | -5% | 0.72
36 | CC(C)Cn1nc2n(c1=O)CCN(C(=O)c1cncn1C)[C@@H]2c1ccccc1 | 2% | -0.26
37 | Cc1ccc2c(=O)n(C3(C)CCC3)cnc2c1 | -7% | 1.35
38 | O=C(CCn1ccnc1-c1cc2n(n1)CCCNC2)NC1CCCCC1 | 5% | -0.79
39 | O=C(O)[C@@H]1Cc2c([nH]c3ccccc23)C2(CCCCC2)N1 | -13% | 1.17
40 | CCOc1ccccc1-c1ncnc2c(C)csc12 | -9% | 0.8
41 | Cc1ccc(CNCc2scnc2C)c(OC[C@H]2CCOC2)c1 | -6% | 0.62
42 | CC(C)(C)CC(=O)N1C[C@@H]2C[C@H]1C(=O)Nc1ccccc1O2 | -7% | 1.21
43 | CCn1nc(C)c(C(=O)N2CC=C(c3ccc(C#N)cc3)CC2)c1C | -5% | 0.42
44 | O=C(c1nc(N2CCOCC2)ncc1Cl)N1CCc2sccc2C1 | 6% | -0.76

Row | Compound | % Inhibition | Z score
45 | CCN(C1CC1)S(=O)(=O)c1ccc2ccccc2c1 | -4% | 0.42
46 | CCN1C[C@@H](CNC(=O)c2cc(NS(=O)(=O)CC)cc3nc(-c4ccccc4)n(C)c23)CC1=O | 5% | -0.64
47 | COc1ccc(-c2n[nH]c(C(=O)N(C)C)n2)c(C)c1 | 1% | -0.18
48 | CCS(=O)(=O)N(C)Cc1cccnc1OC | -9% | 1.22
49 | CC(F)(F)CC(=O)N[C@H]1CC[C@@H](C#N)C1 | -4% | 0.43
50 | CN(C)c1ncc(CNC2(CNC(=O)OC(C)(C)C)CCCC2)cn1 | 1% | -0.12
51 | Cc1ccc2sc(CNC(=O)OC3CCC3)nc2c1 | 0% | 0.07
52 | CCc1c(C(=O)N(Cc2ccccc2)Cc2nccs2)c(=O)cc(C)n1C | -9% | 1.62
53 | O=C1C2CCCC1CC(C(=O)N1CCN(c3ccccc3)CC1)C2 (stereo not given) | -2% | 0.19
54 | COc1cc(-c2nc(C(=O)Nc3ccc(C)cc3)cs2)ccc1OCc1c(F)cccc1F | 7% | -0.74
55 | CCn1nc([C@@H]2CCCN2Cc2ccsc2)c2c1CCOC2 | -7% | 0.67
56 | CC(=O)N1CCc2cc(S(=O)(=O)N(C)Cc3cc(C)on3)ccc21 | 0% | 0.05
57 | O=C(NCc1noc(-c2ccccc2)n1)c1cc(CO)ccn1 | -3% | 0.49
58 | Cc1cn2cc(C(=O)NCCc3csc(N)n3)ccc2n1 | -9% | 1.43
59 | CCC[C@H]1COCCN1C(=O)c1cc(CN(CC)CC)c(CC)o1 | 6% | -1.08
60 | CCOCc1c(-c2ccc(Cl)cc2)c2cc3c(cc2[nH]c1=O)OCCO3 | 33% | -3.73
61 | Cc1noc(C)c1CCNC1CCCC(C(F)(F)F)C1 (stereo not given) | -3% | 0.48
62 | Cc1cnccc1N1CCC[C@H](CS(C)(=O)=O)C1 | -19% | 2.81
63 | O=C(Nc1cccnc1)C(=O)N1CCC[C@H](NCc2ccccc2)C1 | -16% | 1.72
64 | N#Cc1ccc(COc2ccc3c(c2)OCO3)c(F)c1 | -19% | 2.2
65 | Cc1ccc(C(=O)NCC2=CCN(CCn3cccn3)CC2)cc1 | -6% | 0.6
66 | CCCN(Cc1ccc(C(=O)N[C@H]2CCCc3ccccc32)c(=O)[nH]1)C1CC1 | -14% | 2.17

Row | Compound | % Inhibition | Z score
67 | COc1ccc2cc(C(=O)N3CC[C@H](Cc4ccc(CO)cc4)C3)n(C)c2c1 | -21% | 2.13
68 | O=C(c1ccc(S(=O)(=O)N2CCOCC2)cc1)N(C(=O)N1CCCCC1)c1ccccc1 | 5% | -0.96
69 | C[C@@H](Cc1ccc(N(C)C)cc1)NC(=O)c1c[nH]nc1-c1cccc(F)c1 | -14% | 1.95
70 | CC1(C)CS(=O)(=O)N(c2cccc(C(=O)N3CCN(c4ccccn4)CC3)c2)C1=O | -2% | 0.26
71 | COc1cc(CNCc2cnc(-c3ccccc3)s2)ccc1C | -19% | 2.05
72 | C[C@H]1CCCCN1CCCNC(=O)c1cc(-c2ccccc2F)nc2cc(C(C)(C)C)nn12 | -2% | 0.23
73 | O=C(c1ccc(Cl)o1)N1CCN(c2nccs2)CC1 | -8% | 1.08
74 | Cc1nc(CN2CCc3c(c(C(=O)N4CCc5ccccc5C4)nn3Cc3ccccn3)C2)no1 | -1% | 0.26
75 | CNc1ncccc1C(=O)N[C@H]1COC[C@@H]1OC | -7% | 1.02
76 | CCN(C)S(=O)(=O)NCc1csc(N)n1 | -11% | 1.09
77 | COC[C@@H]1[C@H](C(=O)NCCCN2CCCC2=O)CCCN1Cc1ccccc1 | 2% | -0.26
78 | COc1ccc(CCn2c(C3CCC3)n[nH]c2=O)cc1 | -10% | 1.23
79 | O=C(c1ccccn1)N1CC[C@H](Cc2noc(C3CC3)n2)C1 | 10% | -1.84
80 | COC(=O)C1CCN(C(=O)CCc2ccc(-c3ccc(C)cc3C)n2-c2ccc(CC#N)cc2)CC1 | -6% | 0.89
81 | O=C(c1ccc(-c2c[nH]c3ccccc23)o1)N1CCOCC1 | -22% | 2.8
82 | Cc1cnc(CN2C[C@]3(CCCN(c4cnccn4)C3)CCC2=O)cn1 | -1% | 0.12
83 | CC1(C)C(Nc2ncnc3[nH]ncc23)C2CCOC21 (stereo not given) | -12% | 1.05
84 | C=Cn1cc(CNc2ccc(-c3cn4c(n3)CCCC4)cc2)cn1 | -19% | 1.99
85 | Cn1cc(Cl)cc1C(=O)N1CCS(=O)(=O)C[C@H]1C1CCC1 | -9% | 1.46
